# Assay results: the antibiotic and cytotoxicity screens of Wong et al. (2023)
# This is one part of the list.
# Key:
# [1] = test system: HSkMC (human skeletal muscle cells); test: cytotoxicity call (relative viability < 0.9); conditions: 10 µM
# [2] = test system: HepG2; test: cytotoxicity call (relative viability < 0.9); conditions: 10 µM
# [3] = test system: S. aureus RN4220; test: growth inhibition call (relative growth <= 0.2); conditions: 50 µM
SMILES,cytotoxicity call [1],cytotoxicity call [2],growth inhibition call [3]
C[C@H]1CN([C@@H](C)CO)C(=O)Cc2cc(NC(=O)Nc3ccc(F)cc3)ccc2O[C@@H]1CN(C)S(=O)(=O)c1cn(C)cn1,inactive,inactive,inactive
C[C@H](CO)N1C[C@H](C)[C@@H](CN(C)C(=O)C2CCOCC2)Oc2ncc(C#CCc3ccccc3)cc2C1=O,inactive,inactive,inactive
C[C@@H]1CN([C@H](C)CO)C(=O)c2c(c3ccccc3n2C)-c2ccccc2CO[C@@H]1CN(C)Cc1ccc2c(c1)OCO2,inactive,inactive,inactive
O=C(C[C@@H]1CC[C@@H]2[C@H](COC[C@H](O)CN2S(=O)(=O)c2ccc(F)cc2)O1)N[C@H]1CCN(Cc2ccccc2)C1,inactive,inactive,inactive
O=C(Nc1ccc(C(F)(F)F)cc1)Nc1cccc(Cl)c1,active,active,inactive
C[C@@H]1CN([C@H](C)CO)C(=O)CCCn2nncc2CO[C@H]1CN(C)C(=O)Nc1ccnc(N2CCOCC2)c1,inactive,inactive,inactive
O=c1[nH]cnc2c1ncn2C1OC(CO)C(O)C1O (centres undefined),inactive,inactive,inactive
CC(C)CC#Cc1ccc2c(c1)O[C@@H](CN(C)C(=O)Cc1cccnc1)[C@H](C)CN([C@H](C)CO)S2(=O)=O,inactive,inactive,inactive
C[C@@H]1CCCCO[C@H](CN(C)Cc2ccc3c(c2)OCO3)[C@H](C)CN([C@H](C)CO)C(=O)c2cc(NC(=O)Nc3ccccc3)ccc2O1,inactive,active,inactive
Cc1cc(C(=O)Nc2cccc3c2O[C@@H](CN(C)C(=O)NC(C)C)[C@H](C)CN([C@H](C)CO)C3=O)n(C)n1,inactive,inactive,inactive
Cc1noc(C)c1NC(=O)N(C)C[C@H]1Oc2c(NC(=O)c3ccncc3)cccc2C(=O)N([C@H](C)CO)C[C@@H]1C,inactive,inactive,inactive
CCCC#Cc1ccc2c(c1)O[C@@H](CN(C)C(=O)c1cnccn1)[C@@H](C)CN([C@@H](C)CO)S2(=O)=O,inactive,inactive,inactive
CCOc1ccc(Cc2cc(C3OC(CO)C(O)C(O)C3O)ccc2Cl)cc1 (centres undefined),inactive,inactive,inactive
C[C@@H]1CCCCO[C@@H](CN(C)S(=O)(=O)c2ccc(Cl)cc2)[C@H](C)CN([C@H](C)CO)C(=O)c2cc(NC(=O)Nc3ccc4c(c3)OCO4)ccc2O1,inactive,inactive,inactive
C[C@H](CO)N1C[C@H](C)[C@@H](CN(C)C(=O)Nc2cccc3ccccc23)OCc2cnnn2CCCC1=O,inactive,inactive,inactive
O=C([C@H]1N[C@H]2c3ccc(-c4ccc(F)cc4)c(=O)n3C[C@H]2[C@@H]1CO)N1CCOCC1,inactive,inactive,inactive
CO[C@H]1CN(C)C(=O)c2cc(NS(=O)(=O)CC(F)(F)F)ccc2OC[C@H](C)N(Cc2cccnc2)C[C@@H]1C,inactive,inactive,inactive
C[C@H]1CN([C@@H](C)CO)C(=O)Cc2cc(NC(=O)Nc3cccc4ccccc34)ccc2O[C@H]1CN(C)C(=O)Nc1ccc(C(F)(F)F)cc1,inactive,inactive,inactive
CC(C)NC(=O)N(C)C[C@H]1Oc2ccc(NS(=O)(=O)c3cccs3)cc2C(=O)N([C@@H](C)CO)C[C@@H]1C,inactive,inactive,inactive
COc1cc(C)nc2nc(S(C)(=O)=O)nn12,inactive,inactive,inactive
Nc1ncnc2c1ncn2[C@H]1CCCO1,inactive,inactive,inactive
CCCNC(=O)Nc1ccc2c(c1)C(=O)N(C)C[C@H](OC)[C@@H](C)CN(C(=O)C1CCOCC1)[C@H](C)CO2,inactive,inactive,inactive

SMILES,cytotoxicity call [1],cytotoxicity call [2],growth inhibition call [3]
C[C@@H]1CN([C@H](C)CO)C(=O)c2cccc(NC(=O)C3CCCCC3)c2O[C@H]1CN(C)C(=O)Nc1cccc2ccccc12,inactive,inactive,inactive
COc1cccc(S(=O)(=O)N[C@H]2C=C[C@@H](CC(=O)NC3CCC3)O[C@@H]2CO)c1,inactive,inactive,inactive
C[C@H]1CCCCO[C@H](CN(C)C(=O)NC2CCCCC2)[C@@H](C)CN([C@@H](C)CO)C(=O)c2cc(NC(=O)Nc3ccc(F)cc3)ccc2O1,inactive,inactive,inactive
CNC(=O)c1c(F)cccc1Nc1nc(Nc2cc3c(cc2OC)CCN3C(=O)CN(C)C)nc2[nH]ccc12,active,active,inactive
COc1ccc(S(=O)(=O)N(C)C[C@H]2OCCCC[C@@H](C)Oc3ccc(NC(=O)Nc4ccc(F)cc4)cc3C(=O)N([C@H](C)CO)C[C@H]2C)cc1,inactive,inactive,inactive
CSc1n[nH]c2nc(=O)cc(N)n12,inactive,inactive,inactive
CO[C@H]1CN(C)C(=O)c2cc(NC(=O)CC(F)(F)F)ccc2OC[C@H](C)N(S(=O)(=O)c2cn(C)cn2)C[C@H]1C,inactive,inactive,inactive
COc1cccc(S(=O)(=O)N2C[C@@H](O)COC[C@@H]3O[C@H](CC(=O)N4CCOCC4)CC[C@H]32)c1,inactive,inactive,inactive
COc1ccc(CN(C)C[C@@H]2OCCCC[C@H](C)Oc3ccc(NS(=O)(=O)c4c(C)noc4C)cc3C(=O)N([C@@H](C)CO)C[C@H]2C)cc1,inactive,inactive,inactive
O=C1C(O)=C(C2CCC(c3ccc(Cl)cc3)CC2)C(=O)c2ccccc21 (centres undefined),inactive,active,inactive
CN1C(=O)c2cc(NC(=O)Nc3ccccc3F)ccc2OC[C@@H]2O[C@H](CC(=O)NCc3ccc(-c4ccccc4)cc3)CC[C@@H]21,inactive,inactive,inactive
C[C@H](CO)N1C[C@H](C)[C@H](CN(C)C(=O)Nc2cccc3ccccc23)OCCCC[C@H](C)Oc2ccc(NC(=O)CCC(F)(F)F)cc2C1=O,inactive,inactive,inactive
C[C@@H]1CN([C@@H](C)CO)C(=O)c2cc(NS(=O)(=O)c3cn(C)cn3)ccc2O[C@@H]1CN(C)S(C)(=O)=O,inactive,inactive,inactive
COc1ccc2c3c([nH]c2c1)[C@H](CO)N(C[C@]13CN(CC2CCOCC2)C1)S(=O)(=O)c1cn(cn1)C,inactive,inactive,inactive
COc1cccc(S(=O)(=O)N(C)C[C@@H]2Oc3cc(C#CCN(C)C)ccc3S(=O)(=O)N([C@@H](C)CO)C[C@@H]2C)c1,inactive,inactive,inactive
CNC[C@@H]1Oc2cc(C#CC(C)(C)O)ccc2S(=O)(=O)N([C@H](C)CO)C[C@H]1C,inactive,inactive,inactive
C[C@@H]1CN([C@H](C)CO)C(=O)c2cc(NC(=O)Cc3cn(C)c4ccccc34)ccc2O[C@H]1CN(C)CC1CCCCC1,inactive,inactive,inactive
c1ccc(Nc2ncnc3cc(-c4ccccc4)sc23)cc1,inactive,inactive,inactive
CCC(c1ccc(O)cc1)C(CC)c1ccc(O)cc1 (centres undefined),inactive,inactive,inactive
C[C@@H]1CN([C@@H](C)CO)C(=O)CCCn2nncc2CO[C@@H]1CN(C)Cc1ccc2c(c1)OCCN2C,inactive,inactive,inactive
C[C@]12C[C@@H](O)[C@@H]3C[C@@]1(O[C@@H]1O[C@H](CO)[C@@H](O)[C@H](O)[C@H]1O)[C@@]3(COC(=O)c1ccccc1)C(=O)O2,inactive,inactive,inactive
